# Data as given in PubChem BioAssay AID1468 (National Center for Advancing Translational Sciences (NCATS), 2008).
# In all, about 280,000 compounds went through this assay and about 1,100 (0.39%) were called active. The shares of active, inactive and inconclusive entries below differ from those in the screen. The call rests on the fitted dose curve; in most records, active means well fitted inhibition curve with a large enough effect; inconclusive means small, poorly fitted or top-dose-only effect, or effect the other way; inactive means flat fitted curve, though single readings scatter. Potencies of inconclusive entries are left out as doubtful fits.
# Molecular target: Microtubule-associated protein tau (Homo sapiens) (UniProt P10636)
# Chain of UniProt P10636 (P10636 whole entry, looked up): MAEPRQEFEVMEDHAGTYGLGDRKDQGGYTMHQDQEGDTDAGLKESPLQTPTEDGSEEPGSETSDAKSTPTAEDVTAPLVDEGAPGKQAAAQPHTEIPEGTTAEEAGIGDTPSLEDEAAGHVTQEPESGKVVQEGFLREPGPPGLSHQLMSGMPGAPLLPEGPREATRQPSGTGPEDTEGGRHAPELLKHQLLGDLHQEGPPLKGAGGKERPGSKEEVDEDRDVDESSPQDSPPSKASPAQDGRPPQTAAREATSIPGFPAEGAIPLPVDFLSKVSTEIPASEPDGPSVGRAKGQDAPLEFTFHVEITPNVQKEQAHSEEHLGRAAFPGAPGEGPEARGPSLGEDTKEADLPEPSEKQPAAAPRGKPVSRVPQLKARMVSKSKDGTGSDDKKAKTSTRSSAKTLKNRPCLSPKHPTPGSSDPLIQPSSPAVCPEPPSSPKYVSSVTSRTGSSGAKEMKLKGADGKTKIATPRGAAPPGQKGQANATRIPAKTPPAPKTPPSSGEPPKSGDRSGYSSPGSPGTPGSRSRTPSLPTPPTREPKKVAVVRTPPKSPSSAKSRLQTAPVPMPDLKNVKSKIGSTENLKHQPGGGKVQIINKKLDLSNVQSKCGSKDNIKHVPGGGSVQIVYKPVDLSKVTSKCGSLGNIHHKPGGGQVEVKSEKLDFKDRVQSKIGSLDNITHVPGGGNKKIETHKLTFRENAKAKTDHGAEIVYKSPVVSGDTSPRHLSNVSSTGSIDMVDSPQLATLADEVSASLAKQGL
# Assay: qHTS for Inhibitors of Tau Fibril Formation, Fluorescence Polarization; further: nearly all actives have a fitted effect of over 55% in size
# Details: K18 P301L tau heparin fibrillization, Alexa594 FP, 6 h; series mostly up to 57.7 µM; activity, negative = inhibition: at the top concentration
# Summary of the method: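 Quantitative HTS format: compounds meet 15 uM recombinant K18 P301L tau and Alexa 594-tau tracer in 100 mM sodium acetate pH 7; 20 uM heparin triggers fibrillization at 37 C over 6 hr; FP gives the signal.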
# On the % scale 0 is the no-effect control and ±100 the full control effect; potency means the concentration at half of the fitted maximal effect; tags describe the fitted curve by direction and shape.
SMILES,"activity, negative = inhibition",Potency
Cc1ccc(-n2cc(C(=O)O)c(=O)cc2C)c(C)c1,inactive: 8.86%,
COc1ccc(OC)c(NC(=O)c2cccc(Cn3cc(Br)c([N+](=O)[O-])n3)c2)c1,inactive: 5.05%,
O=S(=O)(c1ccccc1)c1ncc(C(F)(F)F)cc1Cl,inactive: -8.02%,
O=C(NCCc1ccccc1)C1CCN(S(=O)(=O)c2cccs2)CC1,inactive: -1.34%,
COCOc1ccc(OC)cc1C(=O)/C=C/c1ccc(OC)c(Br)c1,,"inconclusive [inhibitor, full curve, poor fit]"
Fc1cccc(Cl)c1CNc1n[nH]c(-c2ccco2)n1,,"inconclusive [activator, single point]"
Cc1nn(-c2ccc(C(F)(F)F)cn2)c(C)c1Oc1ccccc1O,,"inconclusive [inhibitor, single point]"
Cc1ccc(/C(N)=N/OC(=O)c2cccs2)cc1,inactive: -6.63%,
Cc1ccc(C)c(S(=O)(=O)c2nnn3c2nc(NCc2cccs2)c2sccc23)c1,,"inconclusive [inhibitor, partial curve]"
CCc1ccc(-n2c(SCC(=O)NC(C)CC)nc3n[nH]c(C)c3c2=N)cc1 (configuration not stated),inactive: -4.43%,
CCCNS(=O)(=O)c1ccc(CCC(=O)N2CCC(C)CC2)cc1,,"inconclusive [inhibitor, full curve, poor fit]"
COc1ccc2c(c1)c1c(c(=O)n(-c3ccccc3)c(=O)n1CC(=O)Nc1ccc(F)cc1)n2C,,"inconclusive [inhibitor, single point]"
COc1cccc(C(=O)Nc2nc3c(s2)CCCC3)c1,,"inconclusive [inhibitor, single point]"
Oc1ccc(C=Nc2ccccc2-c2nc3ccccc3[nH]2)c(O)c1,,"inconclusive [activator, partial curve, poor fit]"
COc1ccc(-n2c(=O)c3ccc(C(=O)NCc4ccc(C)cc4)cc3n(CC(=O)Nc3cccc(F)c3)c2=O)cc1,,"inconclusive [inhibitor, partial curve]"
c1ccc(OCc2nnc3sc(-c4cccs4)nn23)cc1,,"inconclusive [inhibitor, single point]"
CCCc1cc(=O)n2[nH]c(C)nc2n1,,"inconclusive [inhibitor, single point]"
Cn1ccnc1Sc1ccccc1[N+](=O)[O-],inactive: -12.5%,
CCOc1ccccc1C1C(C#N)=C(N)Oc2n[nH]c(CC)c21 (configuration not stated),inactive: -0.528%,
COc1cccc(Oc2cn[nH]c2-c2ccc(O)cc2O)c1,,"inconclusive [activator, partial curve, poor fit]"
O=C(CSC(=S)N1CCCCC1)c1c(F)cccc1F,,"inconclusive [inhibitor, partial curve]"
Cc1cc(O)ccc1Nc1nc(-c2sc(N)nc2C)cs1,,"inconclusive [inhibitor, partial curve]"
CC1(C)C(=O)NC2=C1C(=O)C(=O)c1ccccc12,,"inconclusive [inhibitor, partial curve]"
O=C(COc1ccc(Br)cc1Cl)NC(=O)NCc1ccccc1,,"inconclusive [inhibitor, partial curve]"

SMILES,"activity, negative = inhibition",Potency
COc1cccc(C(=O)N(Cc2ccc(N(C)C)cc2)Cc2ccco2)c1,inactive: 0.559%,
CCOC(=O)c1nc(NCCc2ccccc2)sc1C,inactive: 5.34%,
Cc1ccc(CCN2CC(C(=O)NCc3ccco3)CC2=O)cc1 (configuration not stated),inactive: 0.147%,
Cc1ccc(-n2ncc(C(=O)NCCc3ccsc3)c2C2CCN(C(=O)OC(C)(C)C)CC2)c(C)c1,inactive: 4.13%,
COc1ccccc1NC(=S)N/N=C/c1cccc(C)c1,,"inconclusive [inhibitor, partial curve, poor fit]"
O=C(Nc1ccc2nc(SCCOc3ccccc3)sc2c1)c1ccco1,,"inconclusive [inhibitor, full curve]"
COCCNC(=O)CSc1nc2ccc(N3CCOCC3)cc2c(=O)n1CCc1ccccc1,inactive: -0.749%,
c1csc(C2Nc3cccc4cccc(c34)N2)c1,,"inconclusive [inhibitor, single point]"
CN(C)/C=C/c1c([N+](=O)[O-])c2ccc(O)cc2n1-c1ccccc1,,"inconclusive [inhibitor, single point]"
CN1CN(C)C(c2ccncc2)=C1c1ccncc1,inactive: -36.3%,
O=C(Nc1cccc(Br)c1)Nc1nc2c(s1)CCCCCC2,,"inconclusive [inhibitor, partial curve]"
O=C(CN1C(=O)c2cccnc2Oc2ccc(Cl)cc21)NCCCN1CCCCC1,inactive: -0.758%,
CCOC(=O)c1sc(NS(=O)(=O)c2ccccc2)nc1C,inactive: 1.14%,
O=c1c(Cl)c(NCCCO)cnn1-c1nc2ccccc2[nH]1,,"inconclusive [inhibitor, single point]"
COc1ccc2nc(SCC(=O)NC(C)(C)C)[nH]c2c1,inactive: -5.44%,
O=C(Nc1cccc(C(F)(F)F)c1)c1cc2c(=O)c3ccccc3oc2nc1C(F)(F)F,,"inconclusive [inhibitor, partial curve]"
Cc1oc2c(cc(NS(=O)(=O)c3ccc(Br)cc3)c3ccccc32)c1C(=O)OCc1ccccc1,,"inconclusive [activator, partial curve, poor fit]"
O=C(Nc1cc(Cl)cc(Cl)c1)c1ccc(F)c(S(=O)(=O)N2CCCC2)c1,,active: 14.1 µM
CCCC(=O)Oc1c(Sc2ccc(C)cc2)c(C)nn1-c1ccccc1,,"inconclusive [inhibitor, partial curve]"
CCc1ccc(CN(Cc2ccco2)c2cnc(S(C)(=O)=O)nc2C(=O)Nc2ccc(C)c(Cl)c2)cc1,,"inconclusive [inhibitor, single point]"
O=C(c1c(Cl)cccc1Cl)N1CCCCCC1,inactive: 2.09%,
NC(=O)/C(=C/c1ccco1)C(N)=S,,"inconclusive [inhibitor, partial curve]"
CC(=O)Nc1ccc2nc(SCCOc3ccc(C)cc3)sc2c1,,"inconclusive [inhibitor, full curve]"
